The structures appear in SMILES notation. Out of some 52,000 compounds screened, about 4,300 (8.3%) were called active. No stated cut-off is given here; in the data, active means survival mostly below about 52% (no sharp cut-off); inactive means mostly above about 56%. Some of the results follow.

For this assay, the system named is DeltatarO mutant. The assay can be described thus: growth inhibition of S. aureus wild type versus tarO mutant, primary screen, teichoic acid synthesis inhibitors, RN4220, OD600 (AID 463173). The note with it: OD600, 18 h, hits give low values, screened at 18.75 µg/mL (by protocol).
In the case of `Cc1noc(/C=C/c2ccccc2F)c1S(=O)(=O)N1CCC(C(=O)NCc2ccco2)CC1`, the survival was inactive: 107%.

As to `COc1ccc(CCNC(=O)CCc2c(C)nc3cc(-c4ccc(Cl)cc4)nn3c2C)c(OC)c1`, the survival was inactive: 108%.

On to `COc1ccccc1CN1CCC(C(=O)NCc2ccc(C)cc2)CC1`, for which the survival is inactive: 101%.

Consider `COc1ccccc1Cc1nc2ccccc2nc1SCC(=O)N1CCCCC1`, for which the survival is inactive: 71%.

On to `CCCCOc1ccccc1NC(=O)CC1Sc2ccccc2NC1=O` (stereo not drawn), for which the survival is inactive: 155%.

`COc1ccc(NC(=O)c2sc3nc4n(c(=O)c3c2C)CCC4)c(OC)c1`: the survival was inactive: 79%.

Regarding `CCc1ccc(NC(=O)Cn2c(=O)n(Cc3ccc(C)cc3)c(=O)c3cccnc32)cc1`, the survival was inactive: 88%.

With `CC(=O)N1CCCc2cc(S(=O)(=O)N3CCC(C(=O)N(C)C4CCCCC4)CC3)ccc21`, the survival was inactive: 74%.

On to `Cc1ccccc1C(=O)Nc1nnc(S(=O)(=O)N2CCc3ccccc32)s1`, for which the survival was inactive: 95%.

Turning to `CCOC(=O)c1ccccc1NC(=O)N1CCCn2nc(C)cc21`, the survival was inactive: 87%.

With `O=C(/C=C(/O)c1cccnc1)C(F)(F)F`, the survival was inactive: 93%.

On to `Cc1cc(C)cc(N2C(=O)CSC23C(=O)N(CC(=O)NC2CCCCC2)c2ccccc23)c1` (stereo not drawn), for which the survival is inactive: 115%.

Take `CCOc1ccc(C2CC(=O)c3c([nH]c(C(=O)OCCOc4ccccc4)c3C)C2)cc1` (stereo not drawn): the survival is inactive: 72%.

For the compound `CN(C)N1C(=O)CC(N2CCCC2)C1=O` (stereo not drawn), the survival was inactive: 72%.

In the case of `O=C(c1ccc2c(c1)N(Cc1cccc(Cl)c1)C(=O)c1ccccc1S2(=O)=O)N1CCCC1`, the survival was inactive: 115%.

In the case of `Cc1ccccc1Cn1nnc2c(=O)[nH]c(C3CCCN(C(=O)c4ccc(C(C)(C)C)cc4)C3)nc21` (stereo not drawn), the survival is active: 7%.

Consider `COc1ccc(OC)c(CCNC(=O)c2cnn(-c3ccccc3)c2-n2cccc2)c1`, for which the survival was inactive: 74%.

With `CN(c1ccc(C(=O)N2CCCCC2)cc1)S(C)(=O)=O`, the survival was inactive: 101%.

For the compound `O=C(/C=N/O)Nc1cccnc1`, the survival is inactive: 105%.

Turning to `O=C(CCS(=O)(=O)c1cc(Br)cc2c1N(C(=O)C1CC1)CC2)N1CCN(c2ccccc2)CC1`, the survival is inactive: 91%.

Consider `CCN(CC)C(=O)CSc1nc2c(c(=O)n(C)c(=O)n2C)n1Cc1ccccc1`, for which the survival was inactive: 76%.

For `CCOc1ccc(NC(=O)c2cnn(-c3ccccc3)c2-n2cccc2)cc1`, the survival is inactive: 71%.

With `O=C(CN1CCOCC1)NN=C1CCCCC1`, the survival is inactive: 92%.

On to `O=C(Cn1cc(SCc2ccc(F)cc2)c2ccccc21)N1CCCCCC1`, for which the survival was inactive: 81%.

Consider `N#Cc1c(-c2ccccc2)cc(-c2ccccc2)nc1SCC(O)CS(=O)(=O)Cc1ccccc1` (stereo not drawn), for which the survival was inactive: 67%.

Regarding `CCOCCCNC(=O)C1CCCN(c2ncnc3onc(C)c23)C1` (stereo not drawn), the survival is inactive: 68%.

For the compound `O=C(CCc1ccccc1)N(Cc1cccnc1)c1nc2ccc(F)cc2s1`, the survival was inactive: 80%.

`Cc1nn(C)c2c1c(-c1ccccc1)cc(=O)n2Cc1ccc(F)cc1Cl`: the survival is inactive: 89%.

With `CCN(CC)C(=O)Cn1c(=O)n(-c2ccc(Cl)cc2)c(=O)c2c3c(sc21)CCCCC3`, the survival was inactive: 89%.

As to `CC1CCN(C(=O)c2cc3n(n2)C(C(F)(F)F)CC(c2ccccc2)N3)C(C)C1` (stereo not drawn), the survival was inactive: 81%.

Turning to `CCS(=O)(=O)c1nnnn1-c1ccccc1`, the survival is active: 9%.

Take `O=S1(=O)CCC(NC2CCCCC2)C1` (stereo not drawn): the survival is inactive: 96%.

Turning to `CCCN(Cc1cccs1)C(=O)Nc1cc(C)cc(C)c1`, the survival was inactive: 98%.

Regarding `CCC(CC)c1nc2ccccc2c(=O)[nH]1`, the survival was inactive: 98%.

Turning to `CN(Cc1ccccc1)c1ccc2cc(S(=O)(=O)N3CCCCC3)ccc2n1`, the survival was inactive: 64%.

As to `COc1ccc2cc(-c3nc(-c4ccc(N(C)C)cc4)no3)c(=O)oc2c1`, the survival was inactive: 96%.

Turning to `Cc1ccc(C)c(CSc2cn(CC(=O)N3CCCC3)c3ccccc23)c1`, the survival is inactive: 63%.

Consider `CCOc1ccc(CN2CCC(C(=O)NCC3CCCO3)CC2)cc1OC` (stereo not drawn), for which the survival was inactive: 99%.

Take `COc1ccc(NC(=O)CC2C(=O)N(c3ccc(OC)cc3)C(=O)N2Cc2ccc(OC)c(OC)c2)cc1` (stereo not drawn): the survival is inactive: 131%.

On to `CCOc1ccc(C(c2nnnn2C(C)C)N2CCN(c3cccc(Cl)c3)CC2)cc1` (stereo not drawn), for which the survival was inactive: 93%.

In the case of `CCOc1ccc(CCNC(=O)CCn2c(=O)c3cccn3c3ccc(F)cc32)cc1OCC`, the survival was active: 42%.

Turning to `COCCCNC(=O)C1CCN(Cc2cc3ccccc3n2Cc2cccc(Cl)c2)CC1`, the survival was inactive: 87%.

Take `Cc1ccc(-c2cn3c(n2)sc2cc(C(=O)NC4CCCCCC4)ccc23)cc1`: the survival is inactive: 94%.

Consider `Cc1cc(C)n2nc(CNC(=O)c3cccc(N(C)C)c3)nc2n1`, for which the survival is inactive: 126%.

For `Cc1noc2ncnc(NCCc3ccccc3)c12`, the survival is inactive: 67%.

`O=C(c1ccccc1)N1CCC(O)(c2cccnc2)CC1`: the survival was inactive: 70%.

For the compound `COc1ccc(N2CCN(C(=O)c3ccc4c(c3)CCN4S(=O)(=O)c3ccccc3)CC2)cc1`, the survival is inactive: 92%.

On to `COc1cccc(-c2cc(C(=O)NCc3ccccc3)no2)c1`, for which the survival is active: 45%.

As to `Cc1c(C(=O)N(C)Cc2ccccc2)sc2nc(-c3ccc(F)cc3)cn12`, the survival is inactive: 69%.

Regarding `COc1cc(NC(=O)CSc2cc(=O)n(C)c3ccccc23)cc(OC)c1OC`, the survival was inactive: 99%.

Regarding `CC(NCc1ccc2c(c1)n(C)c(=O)n2C)c1ccccc1` (stereo not drawn), the survival was inactive: 94%.

With `CCOc1ccccc1NC(=O)C1CCCN(S(=O)(=O)c2cccs2)C1` (stereo not drawn), the survival is inactive: 97%.

As to `Cc1ccc(NS(=O)(=O)c2ccc3nc(-c4ccccc4)[nH]c3c2)cc1Cl`, the survival is active: 6%.

`COc1ccc(Br)cc1CNC(=O)C1CCN(c2nnc(-n3cccc3CNc3ccc(C)cc3)s2)CC1`: the survival was inactive: 72%.

With `O=S(=O)(Nc1nc2n(n1)C(c1ccc(F)cc1)C=C(c1ccc(Cl)cc1)N2)c1ccccc1` (stereo not drawn), the survival was active: 42%.

On to `CCn1cc(C(=O)N(C)c2cc(C)ccc2C)c2cc(OC)c(OC)cc2c1=O`, for which the survival is inactive: 171%.

On to `CSc1nn(CC(=O)Nc2ccc(C)cc2C)c(N)c1S(=O)(=O)c1ccc(Cl)cc1`, for which the survival was inactive: 57%.

Take `Cc1ccc(C)c(S(=O)(=O)c2nnn3c2nc(NCc2ccc4c(c2)OCO4)c2sccc23)c1`: the survival was inactive: 90%.

For the compound `CN(C)c1ccc(NC(=O)Cn2c(SCc3ccccc3F)nc3cccnc32)cc1`, the survival is inactive: 124%.

In the case of `COc1ccc(-c2nnc(SCC(=O)Nc3ccc(F)cc3)s2)cc1`, the survival was inactive: 83%.

Take `O=c1c2sc3ccccc3c2n(Cc2ccccc2F)c(=O)n1CCc1ccccc1`: the survival is inactive: 69%.

Regarding `CN(C)c1ccc(C(CNS(=O)(=O)c2ccc(Br)cc2)N2CCOCC2)cc1` (stereo not drawn), the survival is inactive: 74%.

`CCOC(=O)c1ccccc1NC(=O)Cn1c(=O)n(Cc2ccccc2)c(=O)c2c(C)c(C)sc21`: the survival is active: 84%.

Consider `CCN(c1ccc(Cl)cc1)S(=O)(=O)c1nnc(NC(=O)C(C)C)s1`, for which the survival is inactive: 84%.

Consider `COc1ccc(Nc2nc(NCCO)c3ccccc3n2)c(OC)c1`, for which the survival was inactive: 88%.

As to `CCC(=O)Oc1ccc(-c2nc3ccccc3c(=O)o2)cc1`, the survival is inactive: 52%.

On to `Cc1ccc(-n2ncc(C(=O)N3CCN(Cc4ccccc4)CC3)c2C2CCN(C(=O)OC(C)(C)C)CC2)c(C)c1`, for which the survival was inactive: 55%.

Regarding `CC(C)(C)OC(=O)N1CCC(c2c(C(=O)NCc3ccco3)cnn2-c2ccc(F)cc2)CC1`, the survival is inactive: 88%.

Regarding `CCN(c1ccccc1)S(=O)(=O)c1ccc(Cl)cc1`, the survival is inactive: 92%.

As for `O=[N+]1C2=C(CCCC2)N([O-])C12CCCC2`, the survival was inactive: 72%.

As for `Cc1ccc(Cn2ccc(NC(=O)c3cc(-c4ccc(Cl)c(Cl)c4)on3)n2)cc1`, the survival was active: 45%.

As to `COCCc1nn2c(=O)cc(COC(=O)c3ccc(C(C)(C)C)cc3)nc2s1`, the survival was inactive: 122%.

Regarding `Cc1ccc(S(=O)(=O)c2nc(-c3ccc(Cl)cc3)oc2N2CCCCCC2)cc1`, the survival is active: 36%.

In the case of `CCCn1c(SCC(=O)Nc2ccccc2C(F)(F)F)nnc1-c1ccoc1C`, the survival is inactive: 77%.

As to `COc1ccc(CNc2ncnc3c2c(-c2ccccc2)cn3-c2ccccc2)cc1`, the survival is inactive: 82%.

As for `CCN(CC)S(=O)(=O)c1ccc(C(=O)N=c2sc3cccc(OC)c3n2C)cc1`, the survival was inactive: 97%.

For `CCc1c(SCC(=O)O)nc2ccccc2c1C`, the survival is inactive: 102%.

Turning to `CN1CC(=O)N(CC(=O)Nc2ccc(Cl)c(C(F)(F)F)c2)c2ccccc2C1=O`, the survival was inactive: 85%.

Turning to `Cc1c(-c2cccc(NC(=O)C(C)(C)C)c2)nc2ncccn12`, the survival was inactive: 79%.

With `Cc1ccc(-c2nc(SCc3ccc(Br)cc3)n3[nH]c(=O)cc3n2)cc1`, the survival is active: 37%.

For `CCc1ccc(-c2ccc(C(=O)Oc3ccc(Br)cc3)cc2)nc1`, the survival is inactive: 78%.

For the compound `O=C1C=CC(=O)N1c1ccc(N2CCCCC2)cc1`, the survival was inactive: 89%.

Regarding `Cc1c(C)n(C)c2ccc(C(=O)NCCCN3CCCCC3)cc12`, the survival is inactive: 69%.

`O=C(CSc1ncn(-c2ccccc2)n1)NC1CCCCC1`: the survival is inactive: 61%.

Take `Cc1cccc(N2C(=O)CCSC23C(=O)N(Cc2ccc(F)cc2)c2ccccc23)c1` (stereo not drawn): the survival was inactive: 99%.

`Cc1ccc(-c2c(C(=O)NCCc3ccc(Cl)cc3)oc(=O)c3ccccc23)cc1`: the survival was inactive: 51%.

As to `Cc1ccc(N2CNC(=O)c3c(C)cc(C)nc32)cc1`, the survival is inactive: 74%.

Take `O=C(CC1(O)C(=O)N(CCc2ccccc2)c2ccc(Br)cc21)c1ccccc1O` (stereo not drawn): the survival is active: 40%.

For the compound `CCOc1ccc(-c2cc(C(=O)NCc3ccccc3)c3c(-c4ccc(CC)cc4)[nH]nc3n2)cc1`, the survival is active: 47%.

`O=C(COc1ccc(F)cc1)Nc1ccc2nc(SCc3ccccc3)sc2c1`: the survival is inactive: 85%.

Regarding `CCc1cccc(NC(=O)CSc2ncc3c(n2)-c2ccccc2N(Cc2ccccc2C)S3(=O)=O)c1`, the survival is active: 8%.

As for `Cc1ccccc1Nc1c2c(nc3nncn13)CCC2`, the survival was inactive: 68%.

`O=C(O)/C=C\C(=O)Nc1ccc2cn[nH]c2c1`: the survival is inactive: 71%.

These data come from PubChem BioAssay AID463173 (ICCB-Longwood Screening Facility, Harvard Medical School, 2010).
